Out of some 390,000 compounds screened, about 930 (0.24%) were called active. Inconclusive means that the source gave no clear call. Such entries were picked first, then a sample of the others. Calls come from the whole dose curve; as a rule, active = well fitted activation curve with a large enough effect; inconclusive = small, poorly fitted or top-dose-only effect; inactive = no such curve, though single readings can be large or run the other way. A potency beside an inconclusive call is a rough fit, not a confirmed value.
Assay: qHTS for Suppressors of FUS Proteinopathy: Primary screen using FUS-linked yeast assay; note: nearly all actives have a fitted effect of over 55% in size;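 for growth rescue (activation): plate controls were DMSO vehicle for no effect and reference control for full effect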
Conditions: S. cerevisiae FUS-expressing, OD600, 24 h; Potency: growth rescue; growth rescue (activation): at 76.6 µM (top of the series)
Method in brief: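 Galactose (2%) drives FUS expression in yeast precultured in raffinose; seeding density OD 0.005. Test compounds incubated 24hr at 30C and 99% humidity before absorbance at 600 nm was measured.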
Potency is the fitted concentration of half-maximal effect; tags give direction and shape of the fitted curve.

Compound	Potency	growth rescue (activation)
CC1Cc2ccccc2N1CC(=O)Nc1ccc(S(=O)(=O)N(C)C)cc1 (stereo not drawn)	inconclusive: 31.6 µM [activator, partial curve, poor fit]	
CCCCN(CCCC)S(=O)(=O)c1ccc2oc(C(=O)N3CCOCC3)c(C)c2c1	inconclusive: 35.5 µM [activator, partial curve, poor fit]	
CC(C)(C)NC(=O)C(c1ccc(-c2ccccc2)cc1)N(C[C@H]1CC[C@@H]([C@@H]2CC[C@H](CO)O2)O1)C(=O)c1ccc2ccccc2c1 (stereo partly drawn)	inconclusive: 14.1 µM [activator, partial curve, poor fit]	
O=C(CN1CCc2cc3c(cc2C1)OCCCO3)Nc1ccc(S(=O)(=O)N2CCCC2)cc1	inconclusive: 10 µM [activator, partial curve, poor fit]	
Cc1ccc(Cn2c(=O)n(Cc3ccc(C(=O)NCC4COC4)cc3)c(=O)c3ccccc32)cc1	inconclusive: 35.5 µM [activator, single point]	
C[C@@]12C(=O)Nc3ccc(F)cc3C(=O)N1[C@H]1c3ccccc3OC[C@@H]1[C@@H]2c1ccccc1	inconclusive: 28.2 µM [activator, single point]	
COc1cccc(/C=C/c2nc(C#N)c(N3CCC(C(N)=O)CC3)o2)c1	inactive	
COc1ccc(CCN2C(=O)C(O)=C(C(=O)c3ccco3)C2c2cccs2)cc1OC (stereo not drawn)	inconclusive: 50.1 µM [activator, partial curve, poor fit]	
O=C(C1CCCN1S(=O)(=O)c1ccc(Cl)s1)N1CCc2ccccc2C1 (stereo not drawn)	inactive	
CCN(CC)S(=O)(=O)c1cccc(NC(=O)c2cc3ccccc3o2)c1	inactive	
O=C(O)CCCC(=O)N1N=C(c2c(-c3ccccc3)c3cc(Cl)ccc3[nH]c2=O)CC1c1cccs1 (stereo not drawn)	inconclusive: 35.5 µM [activator, single point]	
COc1ccc(OC)c(NC(=O)Cn2c(=O)oc3ccccc32)c1	inconclusive: 39.8 µM [activator, partial curve]	
c1ccc(-c2ccc(C3=Nn4c(Cn5nnc6ccccc65)nnc4SC3)cc2)cc1	inconclusive: 28.2 µM [activator, partial curve, poor fit]	
N#Cc1ccc(C(C(=O)NCc2ccccc2)n2c(=O)c(-c3cc4ccccc4[nH]3)nc3ccccc32)cc1 (stereo not drawn)	inconclusive: 28.2 µM [activator, partial curve, poor fit]	
CCCCCCCCN1C(=O)[C@H](CC(=O)N2CCN(C(=O)C3CC3)CC2)C[C@@]2(C(=O)OCC)CCCC=C12	inconclusive: 31.6 µM [activator, single point]	
Cc1ccc(S(=O)(=O)CC(=O)c2ccc(C(C)(C)C)cc2)cc1	inactive	
CC(=O)Nc1ccc(Nc2cc(C)nc3c(-c4ccccc4)cnn23)cc1	inactive	
COc1ccc(-n2nc(C(=O)N3CCCCC3C)c3c4ccccc4n(C)c3c2=O)cc1Cl (stereo not drawn)	inactive	
Cc1noc(C)c1-c1ccc(C(=O)NC2CCCCC2)c2occc12	inconclusive: 11.2 µM [activator, partial curve]	

Compound	Potency	growth rescue (activation)
COc1cc(NC(=O)C2=CC(c3ccc(F)cc3)=NS(=O)(=O)N2C)cc(OC)c1OC	inactive	
Cc1nc(SCC(=O)Nc2ccc3c(c2)OCCO3)c2oc3ccccc3c2n1	inconclusive: 50.1 µM [activator, partial curve, poor fit]	
COC(=O)[C@]12C[C@H](CC(=O)NCCC(C)C)C(=O)N(Cc3ccccc3)C1=C[C@H](COCc1ccccc1)O[C@@H]2C	inactive	
CCN(Cc1ccccc1)C(=O)C1CCN(S(=O)(=O)c2ccc3c(c2)CCCN3C(C)=O)CC1	inconclusive: 25.1 µM [activator, partial curve]	
CC1C(=O)N(Cc2cn(Cc3ccco3)nn2)CCS(=O)(=O)N1Cc1ccc(-c2ccc(Cl)c(Cl)c2)cc1 (stereo not drawn)	inconclusive: 50.1 µM [activator, single point]	
CCc1nnc(NS(=O)(=O)c2ccc(NC(=O)/C=C/c3ccccc3Cl)cc2)s1	inconclusive: 20 µM [activator, partial curve, poor fit]	
Cc1ccc2nc(SCC(=O)N/N=C/c3ccco3)cc(C)c2c1	inactive	
Cc1ccc(C(=O)Nc2nc(-c3ccccn3)cs2)cc1S(=O)(=O)N1CCOCC1	inactive	
CC1(C(=O)NS(=O)(=O)c2cccc(F)c2)CCN1C(=O)C1(c2ccc(Cl)cc2)CCC1 (stereo not drawn)	inconclusive: 14.1 µM [activator, partial curve]	
Fc1ccccc1-c1nc(N2CCN(c3cccc(Cl)c3)CC2)c2ccccc2n1	inconclusive: 25.1 µM [activator, partial curve]	
CCCCCCCCCCCCCCCCn1cc[n+](CC(C)=O)c1	inconclusive: 35.5 µM [activator, single point]	
Cc1cccc(NC(=S)N/N=C/c2c[nH]c3ccccc23)c1	inconclusive: 44.7 µM [activator, single point]	
CC(=O)Nc1ccc(C(=O)NCCCOC(C)C)cc1	inconclusive: 11.2 µM [activator, partial curve, poor fit]	
CCc1nnc(NC(=O)CSc2nnc(-c3ccoc3C)n2-c2cccc(C)c2)s1		inconclusive: 27.5% [activator]
O=C(c1[nH]c(C(F)(F)F)nc1-c1ccccc1)N1CCC(Cc2ccccc2)CC1	inconclusive: 50.1 µM [activator, single point]	
CCOC(=O)C1CCCN(C(=O)CN2C(=O)c3ccccc3C2=O)C1 (stereo not drawn)	inactive	
O=c1c2cc(N3CCOCC3)ccc2[nH]c(=S)n1CCCN1CCCC1	inconclusive: 15.8 µM [activator, partial curve, poor fit]	
CCCCn1c(CNC(=O)C23CC4CC(CC(C4)C2)C3)nnc1SCC(=O)Nc1ccc(C)cc1	inconclusive: 28.2 µM [activator, single point]	
COCCSc1nc2c([nH]c3ccccc32)c(=O)n1-c1ccc(OC)c(OC)c1	inconclusive: 50.1 µM [activator, single point]	
